# Assay results published in the supplement of paper PMC10338343.
# ± gives the standard deviation. Only a part is listed here, and it is no random draw.
# Test system: MIWI (PIWIL1) piRISC loaded with piRNA #1 (30 nt)
# Assay: pre-steady-state target cleavage rate (min^-1); MIWI and MILI are mouse PIWI proteins and EfPiwi is from a freshwater sponge; tags in brackets are library labels; higher = faster piRNA-guided slicing of the target
# Conditions: guide: piRNA #1 5'p-UGAGGUAGUAGGUUGUAUAGUAUCCAGAGG; auxiliary factor: 500 nM mouse GTSF1
# In short: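 Cleave-'n-Seq used a transcribed, DNA-blocked target RNA library at 0.1 nM and active affinity-purified piRISC with one synthetic guide at 1 nM, with or without 500 nM GTSF1 partner protein, in HEPES–potassium acetate buffer at 33 °C for 0–8 or 0–960 min. Uncleaved targets were sequenced and normalised to depth and to weakly complementary targets, and three trials were pooled with k3 capped at 0.0001 min^-1. The pre-steady-state cleavage rate was estimated by a burst-and-steady-state fit.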
row,Sequence,pre-steady-state target cleavage rate
1,GCACUGGAUACUAUACUACCUACUACCUCA,1.59 ± 0.1
2,GGAGACCUAUGUAUACAACCUACUACCUCCA,0.108 ± 0.015
3,GGAGACCUAUCUUACAACCUACUACCUCA,0.293 ± 0.068
4,CCUCUGGAUACUAUACAACCUACUGACCUCA,1.02 ± 0.058
5,GGAGACGAUACUAUACAACCUACUAACCUCA,1.19 ± 0.057
6,CCUCUGGAUACUAUAGAACCUACUUCCUCA,0.3 ± 0.039
7,GGACUGGUUACUAUUCAACCUACUACCUCA,1.43 ± 0.13
8,GGAGACGAUACUAGUACAACCUACUACCUCA,1.28 ± 0.085
9,GGACUGGAUACUAUACAACCAACUAGCUCA,0.0135 ± 0.0029
10,GCUCUGGAUACUAUACAUGCUACUACCUCA,0.929 ± 0.054
11,GGACUGGAUACUUUACAACGUACUACCUCA,0.94 ± 0.09
12,GCUCUGGAUACAAUACAACCUACUACCUCA,1.73 ± 0.1
13,GGAGAGGAUACUAUUCAACCUACUACGUCA,0.421 ± 0.036
14,GGACUGCAUACUAUACAUCCUACUACCUCA,1.33 ± 0.13
15,CCUCUGGAUUCUAUACAACCUAGUACCUCA,0.302 ± 0.054
16,GCACUGGAUACUAUACAACCUACUACCUGA,1.04 ± 0.16
17,GGACUCGAUACUAUACAACCUAGUACCUCA,0.493 ± 0.053
18,GGAGACCUAACUAUACAAACCUACUACCUCA,< 0.0001
19,CCUCUGGAUACUAUACAACGUUCUACCUCA,0.156 ± 0.016
20,GGAGACCUAUGAUAUGUUGCAAGUACCUCA,< 0.0001

row,Sequence,pre-steady-state target cleavage rate
1,GGUCUGGAUACUAUACAACCAUGUACCUCA,0.00331 ± 0.0027
2,GGAGACCAAACUAUACAACCUACUACCACA,0.732 ± 0.1
3,CCUGUGGAUACUAUACAACCAACUACCUCA,0.129 ± 0.013
4,GGAGACCAUACUUUACUACCUACUACCUCA,0.207 ± 0.022
5,CCACUGGAUACUAUAGAACCUACUACCUCA,0.818 ± 0.055
6,GGAGACCUAUGUAUACAACGUACUACCUCA,0.0113 ± 0.0021
7,CCUCUGGAUACUAUACAAGCUAGUACCUCA,0.0933 ± 0.023
8,GGAGUGGAUACUAUACAACAUACUACCUCA,1.15 ± 0.064
9,GCUCUGGAUACUAAACAACCUACUUCCUCA,0.502 ± 0.033
10,GGAGACCUAUCUAUUCAUCCUACUACCUCA,0.0812 ± 0.015
11,CCUCUGCAUACUAUACAACCUACUUCCUCA,0.728 ± 0.044
12,CCUCUGGAAACUAUACAACCUAGUACCUCA,0.372 ± 0.053
13,CCUCUGGAUACUAUACAACCUAACUACCUCA,0.0333 ± 0.0068
14,GGUCUGGAUACUAUACAACCUACUACUCA,0.315 ± 0.043
15,GGUCUGGAUACUAUACAUCCUACUACCUCA,1.57 ± 0.079
16,GGAGUGGAUACUAUACGACCUACUACCUCA,1.44 ± 0.079
17,GGAGACGAUACUAUACAACCUACUACUUCA,1.74 ± 0.11
18,GGAGUGGUUACUAUACUACCUACUACCUCA,1.33 ± 0.11
19,GGAGACGAUACUUACAACCUACUACCUCA,0.769 ± 0.073
20,CCUCUGGAUACAUAUACAACCUACUACCUCA,1.73 ± 0.12
